# Results taken from the supplement of paper PMC3334620.
# Whole data set: some 33,000 sequences, median “E-score (-0.5 to 0.5)” near -0.035, cut for the highest 2% near 0.35. This is one part of the list.
# Target: T1, Pdr3 (UniProt P33200)
# T1 sequence: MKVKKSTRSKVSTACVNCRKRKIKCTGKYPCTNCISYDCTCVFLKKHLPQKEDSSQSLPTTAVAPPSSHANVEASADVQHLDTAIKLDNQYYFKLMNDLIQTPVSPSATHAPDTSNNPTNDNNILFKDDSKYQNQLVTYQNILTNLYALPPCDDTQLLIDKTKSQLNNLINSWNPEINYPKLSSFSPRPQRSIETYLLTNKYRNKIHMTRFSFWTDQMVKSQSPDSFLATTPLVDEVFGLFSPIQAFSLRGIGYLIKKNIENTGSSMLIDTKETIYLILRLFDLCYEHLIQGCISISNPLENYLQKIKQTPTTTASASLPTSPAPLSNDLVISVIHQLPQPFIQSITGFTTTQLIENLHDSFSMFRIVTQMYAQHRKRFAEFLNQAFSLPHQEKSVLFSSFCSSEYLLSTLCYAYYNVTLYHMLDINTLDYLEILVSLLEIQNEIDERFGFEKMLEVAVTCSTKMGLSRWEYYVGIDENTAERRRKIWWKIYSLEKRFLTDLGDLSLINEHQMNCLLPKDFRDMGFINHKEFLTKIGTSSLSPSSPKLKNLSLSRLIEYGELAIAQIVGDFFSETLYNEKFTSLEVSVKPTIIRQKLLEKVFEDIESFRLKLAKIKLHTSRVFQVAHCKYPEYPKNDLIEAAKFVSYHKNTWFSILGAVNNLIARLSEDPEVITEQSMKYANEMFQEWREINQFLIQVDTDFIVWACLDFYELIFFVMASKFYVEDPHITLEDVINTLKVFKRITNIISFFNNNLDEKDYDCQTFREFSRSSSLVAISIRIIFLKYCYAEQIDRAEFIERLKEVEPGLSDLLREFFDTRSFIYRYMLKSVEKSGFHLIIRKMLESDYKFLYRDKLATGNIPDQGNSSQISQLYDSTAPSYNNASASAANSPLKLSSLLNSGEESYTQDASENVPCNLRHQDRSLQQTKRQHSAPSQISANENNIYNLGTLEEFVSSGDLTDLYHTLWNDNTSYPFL
# Assay: PBM E-score (8-mer binding enrichment) (E-score (-0.5 to 0.5)); higher = stronger / more preferred TF binding; most listed sequences are background and not binding sites
# Conditions: protein concentration: 200 nM; construct: GST-full length
# Summary of the method: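 GST-tagged yeast TFs (full-length or DNA-binding domain) were made by PURExpress in vitro transcription/translation and applied at about 100-200 nM to universal all-10-mer Agilent arrays. The arrays were made double-stranded by primer extension, on fresh or once-stripped slides. Bound protein was detected with fluorescent anti-GST, and scans were normalised with masliner. Each ungapped eight-base word, pooled with its reverse complement, received an E-score (modified Wilcoxon-Mann-Whitney statistic) from the Universal PBM Analysis Suite.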
row,Sequence,PBM E-score
1,CAGTGGCA,-0.193
2,AGGGATGA,-0.0804
3,ATGAGTTA,-0.178
4,ATACTAGA,0.0401
5,TTCCAAAA,-0.177
6,CGCGGGTA,0.363
7,AACGACTG,-0.194
8,AGCTGCAT,-0.169
9,CACCTACG,-0.107
10,AAATTTCC,0.202
11,AGTAGGAT,-0.147
12,ACGTGTAT,-0.217
13,AACACTAG,-0.0882
14,ATACGGCA,0.0009
15,CGAAGTAA,0.0812
16,GCGATACA,-0.127
17,ATGGCCCC,-0.0124
18,ACATCTGA,-0.299
19,ATATCAAT,0.0499
20,CCGCGCTA,0.3
21,ATCCTCTG,-0.0407
22,AATTGCAT,0.0305
23,CTAGATAA,-0.209
24,TGAAACAA,-0.00937
25,TACGCAGA,-0.156

row,Sequence,PBM E-score
1,AACCTCCG,0.219
2,CGTAAGAC,-0.21
3,GCGTCCCA,-0.0521
4,AAAGCCCT,-0.232
5,TAGTATAA,-0.0373
6,ATCTGGGG,-0.109
7,ACTGTGCC,-0.117
8,AAGATCCG,0.252
9,GGTTTAGA,-0.0817
10,CTAACGAC,-0.311
11,CGAGGCCC,0.102
12,GGACAACC,0.0553
13,ATCCATGC,0.0353
14,CCAACGTA,-0.334
15,CCCTGAGA,-0.165
16,CCAACCCC,-0.0805
17,ACCATTAC,0.056
18,CAACGTGG,-0.135
19,TGCACCCA,-0.12
20,CGAAAGCA,0.0422
21,GACTTCTC,-0.0359
22,CATTGTCA,-0.0357
23,ATAGGGTC,-0.0192
24,AGGTAGAC,-0.045
25,CTCGCGTA,-0.143

row,Sequence,PBM E-score
1,GATGTGGC,-0.115
2,GTGTACCA,-0.273
3,CCAGGACC,-0.0853
4,ATTCACTA,0.00985
5,TATATCGA,0.154
6,GAGCGGAC,0.0792
7,CCTCCCTC,0.0651
8,GCAACTCC,0.0673
9,ATCAGATG,-0.287
10,GAACCCAA,-0.118
11,ATTTGACG,0.0295
12,GTATGGGA,-0.118
13,GGATCTCA,0.0621
14,CGTGATAC,-0.0674
15,AATGCGGC,0.0245
16,CGGTGGTA,-0.021
17,GTAGGTCA,-0.107
18,GAGTTGGA,-0.0627
19,GACATCCA,-0.199
20,GCCAATCA,-0.245
21,GAGGCAGC,-0.0658
22,CGCTAAGC,0.00063
23,AGGACTGA,-0.137
24,AGTCATTA,-0.37
25,ACAGAGAC,0.0215

row,Sequence,PBM E-score
1,ACACTCGC,0.126
2,GAAATTGC,-0.00669
3,GGTTACAC,-0.153
4,AAACCACG,0.00715
5,CCCGAGAC,0.282
6,ACCTGCAC,-0.0228
7,CATATCGC,0.108
8,GGGGGAAC,-0.165
9,TACAGGCA,-0.134
10,GTGTACAC,-0.23
11,CGTGTTAC,-0.0684
12,AGGGCATA,-0.105
13,GTGAGTAA,-0.0981
14,ATTAAATC,0.152
15,GTATAATA,0.174
16,ATTGATTA,0.167
17,ACGTCGCC,-0.2
18,GTCCTAAA,0.0163
19,ACCGGGGG,0.0642
20,ACACGCTA,-0.0503
21,GCGACTTA,-0.101
22,AGTCATGA,0.053
23,CTCCGTAC,0.162
24,CGATAAAG,-0.147
25,GACGTAGA,-0.283

row,Sequence,PBM E-score
1,CAATGTAG,-0.0561
2,AGGTCACC,-0.183
3,AGCCAGAG,-0.107
4,AGATCATG,-0.148
5,ACGCCGGG,0.251
6,ACCCAGCT,-0.0142
7,CCTGTCTC,-0.0319
8,AAGTGCAC,0.0238
9,AATAATAC,0.032
10,CAGTACGA,-0.116
11,CTAGATTA,-0.108
12,ACCGAAAC,0.147
13,TCCAACGA,-0.242
14,CTTAGGGC,-0.133
15,ATTGTGCC,-0.0525
16,CAAAGTCG,-0.148
17,AGTGGTAG,-0.171
18,GCGCGAAC,0.148
19,ATGGTAGG,-0.137
20,AGTAGGGC,-0.0969
21,CCACCAGG,-0.109
22,ACCCTTTG,-0.0697
23,CGTTTTAC,-0.0906
24,AACGGGAT,0.364
25,CTACGCCC,-0.12

row,Sequence,PBM E-score
1,CTATAAAC,-0.0124
2,TAGTTCGA,-0.0152
3,CACCCTAA,-0.0827
4,GCGCTCAA,-0.166
5,ATCACTGC,0.101
6,CGCCTCCA,-0.00709
7,GAACGATC,0.129
8,TCACTGGA,-0.042
9,CCTCCCGA,0.103
10,CTACCCGC,0.144
11,GTCTGTAA,0.106
12,GGATGGAC,0.0752
13,CATTCTGA,-0.0621
14,ACAGTTCA,-0.0281
15,GCGGACGC,0.0542
16,CCCATTGC,-0.0113
17,ACAGGTAC,-0.14
18,TATCAGGA,-0.0558
19,CAAACATC,0.0461
20,AACGCGCC,0.107
21,AAATAGTT,0.0906
22,ATGGTAAG,-0.102
23,GAAATTCC,0.261
24,ACCTACAA,-0.0899
25,CTCGACTC,-0.113

row,Sequence,PBM E-score
1,AGAACGGG,0.16
2,CTGAAAAA,-0.0962
3,CCTTATTC,-0.28
4,ACAACGTA,-0.125
5,ACACCGCC,0.0577
6,GATCACAC,-0.0327
7,AGGGTTTC,-0.0822
8,CGGTTCCA,0.248
9,GCTGTCAC,-0.211
10,CACTCTAG,-0.172
11,CCCGGAGG,0.165
12,CTATCTAA,0.00128
13,GCAGGCAA,-0.083
14,AGTCCAGG,-0.174
15,CAACCGCG,0.369
16,AACAAGAT,0.106
17,CGATGCAC,-0.186
18,AAATCAAT,0.00895
19,CGGCCCCG,0.224
20,AGGGTTAC,-0.224
21,ACGGCCAG,0.0353
22,AAAGTCAA,-0.0567
